About 65 (0.1%) of roughly 45,000 compounds were called active. Calls follow the shape of the dose curve; as a rule, active = well fitted activation curve with a large enough effect; inconclusive = small, poorly fitted or top-dose-only effect; inactive = no such curve, though single readings can be large or run the other way. This is one part of the list.
What follows are molecules tested against Galactocerebrosidase (Homo sapiens) (UniProt P54803) (assay: A Novel Cell-Based Assay to Identify Small Molecules for B -Galactocerebrosidase). Conditions: 145M-Twi-hGALC-G270D cells (Twitcher mouse brain line with human GALC G270D), HMU-beta-Gal fluorescence, 48 h; series mostly up to 57.5 µM; activation: at the top concentration.
In short: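 Brain-derived Twitcher mouse 145M-Twi cells stably expressing human GALC-G270D or wild-type GALC, treated live, then residual GALC activity read by fluorescence of HMU-b-Gal substrate (0.1 mM final) in citrate-phosphate buffer pH 5.2 with sodium taurocholate. Signal increase indicates enhancement.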
Also: 0% is about no effect; nearly all actives have a fitted effect of over 65% in size.

Chain of UniProt P54803 (P54803 whole entry, looked up): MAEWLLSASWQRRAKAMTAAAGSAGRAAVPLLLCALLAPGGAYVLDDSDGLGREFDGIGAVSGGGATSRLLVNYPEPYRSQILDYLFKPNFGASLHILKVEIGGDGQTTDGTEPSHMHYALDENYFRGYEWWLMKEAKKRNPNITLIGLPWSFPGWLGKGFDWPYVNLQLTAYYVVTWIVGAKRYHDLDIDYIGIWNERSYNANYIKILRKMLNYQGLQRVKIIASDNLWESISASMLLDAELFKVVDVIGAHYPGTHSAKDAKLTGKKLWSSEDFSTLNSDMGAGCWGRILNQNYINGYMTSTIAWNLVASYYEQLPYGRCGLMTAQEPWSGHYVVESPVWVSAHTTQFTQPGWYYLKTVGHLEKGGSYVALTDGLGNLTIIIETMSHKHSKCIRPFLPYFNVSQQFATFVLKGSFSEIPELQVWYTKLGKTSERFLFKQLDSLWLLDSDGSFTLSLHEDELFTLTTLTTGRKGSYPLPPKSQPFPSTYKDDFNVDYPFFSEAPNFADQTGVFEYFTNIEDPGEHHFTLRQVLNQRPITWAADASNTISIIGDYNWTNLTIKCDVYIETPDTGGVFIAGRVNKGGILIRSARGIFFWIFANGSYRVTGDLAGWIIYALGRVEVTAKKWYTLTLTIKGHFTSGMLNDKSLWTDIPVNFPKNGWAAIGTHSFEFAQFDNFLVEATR

activation, inactive:
CCOC(=O)c1cccc(NC(=O)c2cc(S(=O)(=O)N3CCCCCC3)cn2C)c1 -6.3%
COc1ccc(CNc2oc(-c3ccc(COc4ccc(Cl)cc4)o3)nc2C#N)cc1 -13.1%
Cc1ccc(C)c(CN2C(=O)c3ccccc3S(=O)c3ccc(C(=O)N4CCC(C)CC4)cc32)c1 (stereo unspecified) -10.8%
Cc1cc(C)cc(Nc2cc(C(=O)NCCCN(Cc3ccccc3)C(C)C)c3ccccc3n2)c1 -0.343%
CCOc1ccc(CNC(=O)c2cc(=O)[nH]c3ccc(S(=O)(=O)N4CCCCC4)cc23)cc1 -22.3%
COc1ccc(CN(C(=O)c2cc3ccccc3oc2=O)C2CCS(=O)(=O)C2)cc1 (stereo unspecified) -9.4%
Cc1ccc(CNC(=O)C2CCC(CNS(=O)(=O)c3ccc4c(c3)CCCC(=O)N4)CC2)cc1 (stereo unspecified) 3.58%
CC(C)OCCCNC(=O)CCCn1c(=O)[nH]c2ccsc2c1=O -17%
COc1ccc(NC(=O)CN2CCCN(S(=O)(=O)c3ccc(Br)cc3)CC2)c(OC)c1 -26.6%
CCOC(=O)c1ccc(NC(=O)CCS(=O)(=O)c2ccc(C)cc2)cc1 -7.9%
Cc1cccc(-c2nc(CCNC(=O)c3ccco3)cs2)c1 -1.57%
O=C(Nc1cccc(-c2nc3ccccc3o2)c1)c1cc([N+](=O)[O-])ccc1N1CCOCC1 -21.6%
CCN(Cc1ccccc1)C(=O)Cn1c(=O)n(-c2ccc(F)c(Cl)c2)c(=O)c2sc3ccccc3c21 -6.28%
Cc1cccc(C)c1OCCSc1nc2ccccc2n1CC(=O)O -7.65%
COc1ccc(N2CCN(S(=O)(=O)c3csc(C(N)=O)c3)CC2)cc1 2.88%
COC(=O)CC1Oc2ccc(F)cc2-n2cc(-c3ccc(Cl)cc3)nc21 (stereo unspecified) 26.2%
COc1ccc(-c2nc3c4cnn(-c5ccccc5F)c4ncn3n2)cc1 -5.74%
CC(=O)Nc1ccc(NS(=O)(=O)c2ccc3c(c2)CC(C)N3C(=O)C2CCC2)cc1 (stereo unspecified) -14.7%
CCc1ccc(CNC(=O)COc2cc(=O)n(CC)c3ccccc23)cc1 -39.9%
CC(=O)N1CCCC1c1nc2ccccc2n1Cc1cccc(Cl)c1 (stereo unspecified) -25.2%
COc1ccc(-n2nnc(-c3nc(-c4cccs4)no3)c2N)cc1OC -22.9%
COC(=O)c1c(NC(=O)c2nc(SCc3cccc(C)c3)ncc2Cl)sc2c1CCCC2 8.74%
CC1=C(c2ccc(F)cc2)S(=O)(=O)NC1=NCc1ccccc1F -19%
COc1cc(C2CC(=O)c3c([nH]c(C(=O)OCC4CCCCC4)c3C)C2)cc(OC)c1OC (stereo unspecified) -26.8%
COc1ccc(-c2nc(C)c(CCNC(=O)C(=O)Nc3ccccc3C#N)s2)cc1OC -5.93%
COc1cc(NC(=O)CC(c2ccc(C)cc2)N2Cc3ccccc3C2=O)cc(OC)c1 (stereo unspecified) -45%
Cc1ccc(-c2noc(-c3ccc(NCc4ccco4)c([N+](=O)[O-])c3)n2)cc1 2.43%
Cc1ccccc1NS(=O)(=O)c1ccc2[nH]cc(C(=O)NC(C)c3ccccc3)c(=O)c2c1 (stereo unspecified) -12.5%
COc1ccccc1C(=O)Nc1nc2nc(-c3ccccc3)cc(=O)n2[nH]1 -4.04%
CCc1nn2c(=O)cc(COC(=O)c3ccc(NC(=O)c4cccs4)cc3)nc2s1 -12.7%
CCOc1ccccc1CNC(=O)Cn1ncn2nc(-c3cccs3)cc2c1=O -9.19%
Cc1ccc(C)c(CNC(=O)C2CCN(c3nc4ccccc4nc3C(F)(F)F)CC2)c1 -6.56%
COc1ccccc1CCNC(=O)C(=O)NCC(c1cccs1)S(=O)(=O)c1ccc(C)cc1 (stereo unspecified) -10%
COc1ccc(Nc2nnc(-c3cc4c(ccc5ccccc54)oc3=O)s2)cc1 -10.5%
Cc1n[nH]c(C)c1S(=O)(=O)N1CCCC(C(=O)Nc2ccc(Br)cc2)C1 (stereo unspecified) -1.48%
COc1ccc(CCNC(=O)c2cc(C)nc3c2c(C)nn3-c2ccc(C)cc2)cc1OC -11.5%
Cc1cc(Nc2ccccc2C)nc(-n2nc(C)cc2C)n1 -9.61%
CCNC(=O)c1ccc2nc(CCc3ccccc3)oc2c1 -7.16%
CCN(CC)CCCNC(=O)c1ccc2nc(N3CCCCC3)sc2c1 -5.53%
CCOc1ccccc1CN1CCc2nc(N3CCN(c4ccccc4F)CC3)ncc2C1 -9.63%
COc1ccc2nc(N(Cc3cccnc3)C(=O)C3COc4ccccc4O3)sc2c1 (stereo unspecified) -25.1%
CCCN(C(=O)c1cn(C)c(=O)c2ccccc12)c1ccccc1C -1.46%
O=C(CN1CCSc2ccccc21)NCc1ccccc1F -4.41%
CCOc1ccccc1C(=O)N(Cc1cc(OC)c(OC)c(OC)c1)C1CCS(=O)(=O)C1 (stereo unspecified) -14.6%
COc1cc(C)ccc1OCCSc1nc(-c2cccc(C)c2)nc2cc(=O)[nH]n12 -13.2%
COc1cccc(C(=O)CC2(O)C(=O)Nc3ccc(Cl)cc32)c1 (stereo unspecified) 1.61%
Cc1nc(CC(=O)Nc2cc(Cl)ccc2C)cs1 0.264%
CCCOc1ccc(CN(C(=O)c2cc(=O)c3ccc(C)cc3o2)C2CCS(=O)(=O)C2)cc1 (stereo unspecified) -6.51%
COc1ccc(N2CCN(S(=O)(=O)CCNC(=O)C3CC(=O)N(c4ccccc4)C3)CC2)cc1 (stereo unspecified) -18.4%
Cc1ccc(-c2cc(NC(=O)COc3ccc(Cl)c(C)c3)on2)cc1 -15.3%
CCN1CCN(C(=O)Cn2ncc3c4ccccc4n(Cc4ccccc4)c3c2=O)CC1 -1.92%
Cc1cc(C)c(NC(=O)CN2C(=O)c3cccnc3Oc3ccc(C)cc32)c(C)c1 -5.39%
Cc1ccc(/C=C/C(=O)Nc2ccc(S(N)(=O)=O)cc2)o1 -16.6%
COc1cccc(NC(=O)Cn2c(=O)n(CC(=O)NCc3ccc(C)cc3)c(=O)c3sccc32)c1 -14.8%
Nc1nnc(SCC(=O)Nc2ccccc2)s1 -17.9%
Cc1ccc(C(c2ccccc2)c2c(C)[nH]c3ccccc23)s1 (stereo unspecified) -22.2%
Cc1ccc2nc(-c3c[nH]c4ccccc34)c(Nc3ccccc3C)n2c1 -8.1%
O=C(CCS(=O)(=O)c1ccc(Br)cc1)Nc1ccc(Cl)c(C(F)(F)F)c1 2.27%
CCOC(=O)c1cccc(NC(=O)c2cn(-c3cccc(OC)c3)c(=O)c3ccccc23)c1 -10.5%
COc1ccccc1CCNC(=O)C(=O)NCC(c1cccs1)S(=O)(=O)c1ccccc1 (stereo unspecified) -6.03%
Cc1cc(C)c(Cn2c3ccccc3c3cnn(CC(=O)NCc4ccccn4)c(=O)c32)c(C)c1 -14.1%
Cc1nnc(SCC2=C(C(=O)O)N3C(=O)[C@@H](NC(=O)Cn4cnnn4)[C@H]3SC2)s1 -15.2%
COc1cc(NC(=O)N(Cc2ccco2)C2CCN(C(C)=O)CC2)cc(OC)c1OC -10.5%
Cc1cccc(-c2nc3nc(C)cc(NCc4ccccc4Cl)n3n2)c1 -25%
COc1ccc(-c2cc(C(F)(F)F)nc(-n3nc(C(F)(F)F)cc3C)n2)cc1 -12.3%
CC(C)OCCCNC(=O)C(=O)Nc1ccc2nc3n(c(=O)c2c1)CCCCC3 -11.9%
Fc1cc(F)c2ncc3c(-c4ccccc4)nn(-c4cccc(Cl)c4)c3c2c1 5.3%
Cc1ccc(Sc2ccc(N3CCC(C(=O)Nc4ccc(C)c(F)c4)CC3)nn2)cc1 -1.21%
Cc1ccccc1NC(=O)C1CCN(C(=O)c2cnn(-c3ccccc3)c2-n2cccc2)CC1 -3.24%
Cc1cccc(Cn2c(=O)n(Cc3ccccc3)c(=O)c3oc4ccccc4c32)c1 -15.4%
Cc1ccc(-n2c(SCC(=O)NCc3ccccc3)nc3n[nH]c(C)c3c2=N)cc1Cl -13.6%
O=C(NCC(c1cccs1)S(=O)(=O)c1cccs1)c1ccc(Cl)cc1 (stereo unspecified) -8.25%
CC1CCN(c2oc(-c3ccc(COc4ccccc4)o3)nc2C#N)CC1 -9.6%
CCc1ccc(-n2c(N3CCN(c4cccc(Cl)c4)CC3)nc3ccccc3c2=O)cc1 -6.46%
CCOc1ccc(NC(=O)Cn2c(=O)n(Cc3nc(-c4ccccc4)no3)c(=O)c3cc4c(cc32)OCO4)cc1 0.0118%
CC(=O)c1ccc(NC(=O)c2nc(-c3ccccc3)n(-c3ccc(Cl)cc3)n2)cc1 -14.6%
CC(C)c1cnc2c(c1SCc1cccc(F)c1)c(=O)n(C)c(=O)n2C -13.7%
CC(=O)N1CCc2cc(Br)cc(S(=O)(=O)N3CCC(C)CC3)c21 1.79%
Cc1ccc(-c2nc3nc(C)cc(C)n3c2Nc2ccc3c(c2)OCCO3)cc1 -25.7%
Cc1ccc(Cn2ccn(CC(=O)Nc3c(C)cc(C)cc3C)c(=O)c2=O)cc1 -1.59%
O=c1[nH]c(=O)n([C@H]2C[C@H](O)[C@@H](CO)O2)cc1C(F)(F)F -16.7%
CCOC(=O)c1cc2c(=O)n3ccccc3nc2n(CCOC)c1=NC(=O)C(C)(C)Oc1ccc(Cl)cc1 -8.33%
Cc1nc2nc(NC(=O)C(C)(C)C)[nH]n2c(=O)c1Cc1ccccc1 6.99%
COc1ccc(NS(=O)(=O)c2cc3c(cc2C)NC(=O)CO3)c(OC)c1 -15.5%
O=C(CSC1=Nc2ccccc2C2=NC(Cc3ccccc3)C(=O)N12)Nc1ccccc1C(F)(F)F (stereo unspecified) -13.9%
COc1cc(NC(=O)C2CCN(S(=O)(=O)c3ccc4c(c3)oc(=O)n4C)CC2)cc(OC)c1 -5.33%
COc1ccc(NC(=O)Cn2c(=O)oc3cc(S(=O)(=O)NCc4ccccc4)ccc32)c(OC)c1 -10.4%
Cc1noc(-c2ccc(N3CCC(C)CC3)c([N+](=O)[O-])c2)n1 -34.5%
CCCCN(C)CCCNC(=O)Cn1ncc2c3ccccc3n(Cc3ccccc3F)c2c1=O -10.8%
CCOc1ccc(CN2C(=O)c3ccccc3Sc3ccc(C(=O)NC)cc32)cc1 -17.3%
CC(C)NC(=O)Cn1c(=O)nc(-c2ccccc2F)c2cc(Cl)ccc21 -7.06%
COC(=O)c1ccc2c(c1)N(CC(=O)Nc1cccc(Cl)c1C)C(=O)c1ccccc1S2 -15%
Cc1cn2c(=O)cc(COc3ccccc3NC(=O)c3ccc(C(C)(C)C)cc3)nc2s1 -11.1%
Cc1cccc(CNC(=O)c2oc3c(c2C)-c2nn(Cc4cccc(Cl)c4)cc2CC3)c1 -9.33%
COCCNC(=O)c1cccc(Nc2nc3ccccc3n3nnnc23)c1 -5.76%
CSc1ccc(CCNC(=O)c2ccc(CS(=O)(=O)c3ccc(Br)cc3)o2)cc1 -3.28%
